Inconclusive results and toxic doses are left out. The source holds more than one record for some entries. They are shown here; other results are not. There may be further records. Values given together are repeated measurements in other runs, samples, wells, individuals or studies. Numbered stars: 1 amine (or outer) side, 2 acyl side, 3 side chain; on linkers, the order of the positions; unused ones are H or OH. Bridge positions count the residues as written; N and C are the ends. Square brackets hold non-standard residues; d marks the D form. Peptide text beside a SMILES is read from it. I, II: the chains in the order shown. Actinocin(9to1) = Cc1c2oc3c(C)ccc(C(=O)[*:1])c3nc-2c(C(=O)[*:2])c(N)c1=O; aThr = C[C@H](O)[C@H](N)C(=O)O; NMeV = CN[CH](C(=O)O)C(C)C; Aze = O=C(O)[CH]1CCN1; Sar = CNCC(=O)O
System: BDF1 mice, B16 melanoma ip, median survival T/C
Test: NCI In Vivo Anticancer Drug Screen. Data for tumor model B16 Melanoma (intraperitoneal) in B6D2F1 (BDF1) mice
Settings: endpoint: median survival time, higher = longer survival
Procedure: The antitumor activity of compounds was measured in mice bearing transplantable tumors. Survival or tumor size were measured and the results are expressed as the measurement made in the treated group (T) divided by the measurement made in the vehicle treated control group (C). The tumor model used in this assay is B16 Melanoma (intraperitoneal) in B6D2F1 (BDF1) mice

`Cc1ccc(S(=O)(=O)NC(=S)S)cc1` was tested. Which T/C (dose: 200.0 mg/kg/injection, schedule: Q01DX009 (ip), vehicle: saline with Tween-80) did it give?
Its T/C is 91 % of control and 161 % of control.

`Cc1c2oc3c(C)ccc(C(=O)N[C@@H]4C(=O)N[C@H](C(C)C)C(=O)N5CCC[C@H]5C(=O)N(C)CC(=O)N(C)[C@@H](C(C)C)C(=O)O[C@H]4C)c3nc-2c(C(=O)N[C@@H]2C(=O)N[C@H](C(C)C)C(=O)N3CCC[C@H]3C(=O)N(C)CC(=O)N(C)[C@@H](C(C)C)C(=O)O[C@H]2C)c(N)c1=O` (I: [aThr][dV]P[Sar][NMeV] / II: [aThr][dV]P[Sar][NMeV]; ester I:1-I:C, II:1-II:C; linker I:N-II:N via Actinocin(9to1)) was tested. Which T/C (dose: 112.0 micrograms/kg/injection, schedule: Q04DX003 (ip), vehicle: saline + alcohol) did it give?
Its T/C is 121 % of control and 157 % of control.

What about the T/C (dose: 150.0 micrograms/kg/injection, schedule: Q04DX003 (ip), vehicle: saline) of the same compound?
The T/C was 117 % of control and 158 % of control.

Which T/C (dose: 80.0 mg/kg/injection, schedule: Q01DX009 (ip), vehicle: saline) does the source give for `COc1ccc(C[C@H](N)C(=O)NC2C(CO)OC(n3cnc4c(N(C)C)ncnc43)C2O)cc1` (some centres undefined) here?
The T/C was 124 % of control and 177 % of control.

For `COc1cccc2c1C(=O)c1c(O)c3c(c(O)c1C2=O)C[C@@](O)(/C(C)=N/NC(=O)c1ccccc1)C[C@@H]3OC1CC(N)C(O)C(C)O1` (some centres undefined), which T/C (dose: 1.5 mg/kg/injection, schedule: Q04DX003 (ip), vehicle: saline) is on record?
Its T/C is 102 % of control and 158 % of control.

How did the T/C (dose: 100.0 mg/kg/injection, schedule: Q01DX009 (ip), vehicle: Klucel (hydroxypropylcellulose) (HPC)) turn out when `Cc1ccc(N=Nc2c(O)ccc3ccccc23)c(C)c1` was run?
Its T/C is 96 % of control and 150 % of control.

And the T/C (dose: 200.0 mg/kg/injection, schedule: Q01DX009 (ip), vehicle: Klucel (hydroxypropylcellulose) (HPC))?
The T/C was 91 % of control and 150 % of control.

`CC[C@H]1CN2CCc3cc(OC)c(OC)cc3[C@@H]2C[C@@H]1C[C@H]1NCCc2cc(O)c(OC)cc21` was tested. Which T/C (dose: 4.0 mg/kg/injection, schedule: Q01DX009 (ip), vehicle: saline) did it give?
The T/C was 122 % of control and 153 % of control.

With `O=C1c2c(O)ccc(O)c2C(=O)c2c(NCCNCCO)ccc(NCCNCCO)c21` as the compound, how does the T/C (dose: 0.5 mg/kg/injection, schedule: Q01DX009 (ip), vehicle: saline with Tween-80) read?
The T/C was 123 % of control and 155 % of control.

For `O=C1C=CC(=O)O1` (tested in a mixture with another compound), which T/C (dose: 100.0 mg/kg/injection, schedule: Q04DX003 (ip), vehicle: saline) is on record?
The T/C was 115 % of control and 172 % of control.

What about the T/C (dose: 200.0 mg/kg/injection, schedule: Q04DX003 (ip), vehicle: saline) of the same compound?
The T/C was 120 % of control, 171 % of control, 179 % of control.

For `Cc1c2oc3c(C)ccc(C(=O)NC4C(=O)NC(C(C)C)C(=O)N5CCC5C(=O)N(C)CC(=O)N(C)C(C(C)C)C(=O)OC4C)c3nc-2c(C(=O)NC2C(=O)NC(C(C)C)C(=O)N3CCC3C(=O)N(C)CC(=O)N(C)C(C(C)C)C(=O)OC2C)c(N)c1=O` (centres undefined) (I: TV[Aze][Sar][NMeV] / II: TV[Aze][Sar][NMeV]; ester I:1-I:C, II:1-II:C; linker I:N-II:N via Actinocin(9to1); configuration not given here), which T/C (dose: 0.6 mg/kg/injection, schedule: Q04DX003 (ip), vehicle: saline + alcohol) is on record?
The T/C was 122 % of control and 156 % of control.

With `CC(=O)NC1CCCCC1` as the compound, how does the T/C (dose: 50.0 mg/kg/injection, schedule: Q04DX003 (ip), vehicle: saline with Tween-80) read?
The T/C was 90 % of control and 161 % of control.

What does the source list for `C1CN(P2(N3CC3)=NP(N3CC3)(N3CC3)=NP(N3CC3)(N3CC3)=N2)CCO1` (centres undefined)?
T/C (dose: 50.0 mg/kg/injection, schedule: Q02DX009 (ip), vehicle: saline): 101 % of control and 191 % of control; T/C (dose: 64.0 mg/kg/injection, schedule: Q02DX009 (ip), vehicle: saline): 88 % of control and 318 % of control

For `O=C1c2ccccc2C(=O)c2c(NCCNCCO)ccc(NCCNCCO)c21`, which T/C (dose: 37.5 mg/kg/injection, schedule: Q01DX001 (ip), vehicle: Klucel (hydroxypropylcellulose) (HPC)) is on record?
The T/C was 102 % of control and 161 % of control.

For `COc1cccc2c1C(=O)c1c(O)c3c(c(O)c1C2=O)C[C@@](O)(C(=O)CO)C[C@@H]3OC1CC(N)C(O)C(C)O1` (some centres undefined), which T/C (dose: 0.25 mg/kg/injection, schedule: Q04DX003 (ip), vehicle: saline) is on record?
Its T/C is 116 % of control and 161 % of control.

What about the T/C (dose: 2.5 mg/kg/injection, schedule: Q01DX001 (ip), vehicle: saline) of the same compound?
The T/C was 122 % of control and 200 % of control.

What about the T/C (dose: 3.0 mg/kg/injection, schedule: Q01DX001 (ip), vehicle: saline) of the same compound?
Its T/C is 122 % of control and 412 % of control.

What does the source list for `CCCCC(=O)OCC(=O)[C@]1(O)Cc2c(O)c3c(c(O)c2[C@@H](OC2CC(NC(=O)C(F)(F)F)C(O)C(C)O2)C1)C(=O)c1c(OC)cccc1C3=O` (some centres undefined)?
T/C (dose: 18.75 mg/kg/injection, schedule: Q01DX001 (ip), vehicle: clinical formulation): 109 % of control and 164 % of control; T/C (dose: 37.5 mg/kg/injection, schedule: Q01DX001 (ip), vehicle: clinical formulation): 123 % of control and 178 % of control

With `C[C@H](CN1CC(=O)NC(=O)C1)N1CC(=O)NC(=O)C1` as the compound, how does the T/C (dose: 400.0 mg/kg/injection, schedule: Q04DX003 (ip), vehicle: water) read?
The T/C was 117 % of control and 150 % of control.

`O=[As](O)(O)c1ccc(Nc2nc(Cl)nc(Cl)n2)cc1` was tested. Which T/C (dose: 12.5 mg/kg/injection, schedule: Q01DX009 (ip), vehicle: Klucel (hydroxypropylcellulose) (HPC)) did it give?
Its T/C is 100 % of control and 156 % of control.

And the T/C (dose: 25.0 mg/kg/injection, schedule: Q01DX009 (ip), vehicle: Klucel (hydroxypropylcellulose) (HPC))?
Its T/C is 100 % of control and 150 % of control.

How did the T/C (dose: 12.5 mg/kg/injection, schedule: Q01DX009 (ip), vehicle: saline with Tween-80) turn out when `CCCCCCCCCCCCCCCC(=O)N(C/C=C/CN(CCCN(C)C)C(=O)CCCCCCCCCCCCCCC)CCCN(C)C` was run?
The T/C was 93 % of control and 175 % of control.

For `Nc1nc(=O)n(C2OC(CO)C(O)C2O)cc1F` (centres undefined), which T/C (dose: 25.0 mg/kg/injection, schedule: Q01DX009 (ip), vehicle: saline) is on record?
Its T/C is 112 % of control and 152 % of control.

Which T/C (dose: 7.5 micrograms/kg/injection, schedule: Q01DX009 (ip), vehicle: saline) does the source give for `CSC1SCC2C(=O)N(C)C(C(C)C)C(=O)OCC(NC(=O)c3cnc4ccccc4n3)C(=O)NC(C)C(=O)N(C)C1C(=O)N(C)C(C(C)C)C(=O)OCC(NC(=O)c1cnc3ccccc3n1)C(=O)NC(C)C(=O)N2C` (centres undefined) here?
The T/C was 123 % of control and 165 % of control.

What about the T/C (dose: 15.0 micrograms/kg/injection, schedule: Q01DX009 (ip), vehicle: saline with Tween-80) of the same compound?
Its T/C is 100 % of control and 158 % of control.

What about the T/C (dose: 60.0 micrograms/kg/injection, schedule: Q01DX009 (ip), vehicle: saline with Tween-80) of the same compound?
Its T/C is 87 % of control and 175 % of control.

Reference: PubChem BioAssay AID192 (DTP/NCI, 2004)
